Assay results taken from PubChem BioAssay AID504832 (National Center for Advancing Translational Sciences (NCATS), 2011).
In all, about 310,000 compounds went through this assay and about 18,000 (5.8%) were called active. The inconclusive results got no clear call from the source; some entries with a clear call stand among them for comparison. Calls come from the whole dose curve; as a rule, active = well fitted inhibition curve with a large enough effect; inconclusive = small, poorly fitted or top-dose-only effect, or another doubt; inactive = no such curve, though single readings can be large or run the other way. Potencies of inconclusive entries are left out as doubtful fits.

Assay: Primary qHTS for delayed death inhibitors of the malarial parasite plastid, 48 hour incubation
Settings: P. falciparum luciferase growth in erythrocytes; series mostly up to 28.7 µM
Outline: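 Growth was read as firefly luciferase luminescence after a 48 h, 37 C, 5% CO2 exposure of compounds to reporter-bearing P. falciparum cultures (0.1% parasitemia, 2% hematocrit final) in Albumax-supplemented RPMI 1640.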
% is set by controls: 0 for no effect and ±100 for the full control effect; potency is the fitted concentration of half-maximal effect; tags give direction and shape of the fitted curve.

Row | SMILES | Potency | activity change, negative = inhibition
1 | CCC(C(=O)Nc1nccs1)c1ccccc1 (stereo not given) | inconclusive [inhibitor, partial curve] | –
2 | O=C1CCN(Cc2ccc(Br)cc2)CCN1[C@H](CO)c1ccccc1 | inactive | –
3 | CC(C)(C)OC(=O)NN=C(c1ccc(O)cc1)c1ccc(O)cc1 | inactive | –
4 | NS(=O)(=O)c1ccc(CCn2c(=S)[nH]c3ccc(F)cc3c2=O)cc1 | inconclusive [inhibitor, partial curve, poor fit] | –
5 | O=C(CN1C(=O)S/C(=C/c2cccn2-c2ccc(O)cc2)C1=O)N1CCCC1 | inconclusive [inhibitor, single point] | –
6 | O=C(COc1ccc2c(c1)C(=O)CC1(CCCCC1)O2)NCc1ccccc1 | active: 8.28 µM | –
7 | Clc1cnc2nc(SC/C=C/c3ccccc3)[nH]c2c1 | inconclusive [inhibitor, single point] | –
8 | COc1ccc(-c2nc(-c3ccccc3)c(-c3cc([N+](=O)[O-])ccc3C)[nH]2)cc1OC | inconclusive [inhibitor, single point] | –
9 | COc1ccccc1NC(=O)N(Cc1cc2cc(OC)c(OC)cc2[nH]c1=O)CC1CCCO1 (stereo not given) | inconclusive [inhibitor, single point] | –
10 | O=C(CN(C1CCCCC1)S(=O)(=O)c1ccc(Br)cc1)NCc1ccncc1 | inconclusive [inhibitor, partial curve, poor fit] | –
11 | CC(C)(C)n1cnc2cc(NS(=O)(=O)c3ccccc3)ccc21 | inconclusive [inhibitor, single point] | –
12 | CN(C)C(=O)CSc1nnc([C@H](Cc2c[nH]c3ccccc23)NC(=O)OC(C)(C)C)o1 | inconclusive [inhibitor, single point] | –
13 | CCCCCC(=O)NC(=S)Nc1cccc(-c2nc3ncccc3o2)c1 | inactive | –
14 | O=C(CSc1nnc(-c2cccs2)n1C1CC1)NC1CCS(=O)(=O)C1 (stereo not given) | inactive | –
15 | Cc1ccc(-n2ncc3c(SCC(=O)NNC(=O)c4ccco4)ncnc32)cc1 | inactive | –
16 | CN(Cc1ccccc1)c1nc2c(c(=O)[nH]c(=O)n2C)n1Cc1ccccc1 | inconclusive [inhibitor, partial curve] | –
17 | COc1ccc(C)cc1NC(=O)CCN1CCN(c2ccccc2F)CC1 | inconclusive [inhibitor, full curve] | –
18 | CCc1cc(C(=O)OC)c(NC(=O)CSc2nccn2C)s1 | inactive | –
19 | COC(=O)c1ccc(C(=O)OC)c(NC(=O)CCc2ccc(C)o2)c1 | inconclusive [inhibitor, single point] | –
20 | CCCCCCN(C(=O)CCCCCN1C(=O)NC(c2ccc(-c3ccccc3)cc2)C(C(=O)OCc2ccccc2)=C1C)C(C(=O)NCCCC)c1ccc(OCC(=O)OC)c(C(=O)OC)c1 (stereo not given) | active: 2.33 µM | –
21 | Cc1nc(NC2=NCN(CCc3ccccc3)CN2)nc2ccccc12 | inconclusive [inhibitor, partial curve] | –
22 | Cn1ncc2c(Nc3ccc(Cl)c(Cl)c3)ncnc21 | inactive | –
23 | O=C(/C=C/Nc1ccc([N+](=O)[O-])cc1)c1ccc(Br)cc1 | inactive | –
24 | Clc1ccc(SCCCCN2CCNCC2)cc1 | inconclusive [inhibitor, single point] | –

Row | SMILES | Potency | activity change, negative = inhibition
25 | O=C(NC12CC3CC(CC(C3)C1)C2)c1cccc(OC(F)F)c1 | inconclusive [inhibitor, partial curve, poor fit] | –
26 | COc1ccc(OCC(=O)N/N=C2\CCCc3ccccc32)cc1 | inactive | –
27 | Cc1cccc(CNc2ccc(C(CC(N)=O)NC(=O)c3ccccc3)cc2[N+](=O)[O-])c1 (stereo not given) | inconclusive [inhibitor, partial curve] | –
28 | N#Cc1ccccc1Cn1cc(C(=O)C2CC2)c2ccccc21 | inconclusive [inhibitor, single point] | –
29 | Cc1ccc(C(=O)N[C@@H](C)CN2C3=NC[C@H](Cc4ccccc4)N3C[C@H]2Cc2ccc(O)cc2)cc1Br | active: 2.08 µM | –
30 | c1ccc(-c2ccccc2OCCCCn2ccnc2)cc1 | active: 11.7 µM | –
31 | CCOc1ccccc1N1CCN(C(=O)[C@@H]2CCCN2C2=NS(=O)(=O)c3ccccc32)CC1 | inactive | –
32 | O=C(CCn1nnc2ccccc21)N/N=C\Cc1ccccc1 | inconclusive [inhibitor, partial curve] | –
33 | CCOC(=O)C1CCCN(C2=NC(=O)/C(=C/c3ccc(O)c(OC)c3)S2)C1 (stereo not given) | – | inactive: -5.55% [at 0.00184 µM]
34 | CC(=O)Nc1ccccc1NC(=O)C/C(C)=N/NC(=O)c1ccncc1 | inactive | –
35 | CC1CCN(C(=O)c2ccc(NC(=O)C3CCCO3)cc2)CC1 (stereo not given) | inactive | –
36 | Cc1cccc(NC(=O)Nc2cccc(Oc3c(F)c(F)c(F)c(F)c3F)c2)c1 | active: 4.15 µM | –
37 | COc1ccc(C(C(=O)NC(C)(C)C)N(C(=O)CCC(=O)Nc2cc(C)on2)c2c(C)cccc2C)cc1 (stereo not given) | inconclusive [inhibitor, partial curve] | –
38 | CCOC(=O)c1sc(=S)n(-c2ccc(C)cc2)c1N | inconclusive [inhibitor, partial curve, poor fit] | –
39 | Cc1cccc2nc(CSc3nc4ccccc4[nH]3)cn12 | inactive | –
40 | OC1(c2ccc(OC(F)F)cc2)CSC(=Nc2cccnc2)N1Cc1ccco1 (stereo not given) | inconclusive [inhibitor, single point] | –
41 | S=C1NCN(C2CCCCC2)CN1c1ccccc1 | inactive | –
42 | COC(=O)c1ccc(NC(=O)CSc2nnc(C(C)NC(=O)c3ccccc3Cl)n2C)cc1 (stereo not given) | inconclusive [inhibitor, full curve, poor fit] | –
43 | CCCOc1ccccc1C1C(C(=O)OC)=CN(C(C)C)C=C1C(=O)OC | active: 13.1 µM | –
44 | NS(=O)(=O)c1cccc(NC(=O)COC(=O)C2CCCCC2)c1 | inactive | –
45 | CC(=O)N1CCC2(CC1)CC(=O)c1cc(OCC(=O)N3CCOCC3)ccc1O2 | inactive | –
46 | COc1ccc(N2CCN(C(=O)CSc3nnc(-c4cccnc4)n3-c3ccc(F)cc3)CC2)cc1 | inconclusive [inhibitor, single point] | –
47 | COc1ccc2c(c1OC)c(=O)n1c3ccc(OC(C)C(=O)NCCCN4CCOCC4)cc3c3ccnc2c31 (stereo not given) | active: 3.7 µM | –
48 | O=C(Nc1cccc(C(F)(F)F)c1)C1CCN(S(=O)(=O)c2ccc(N3CCCC3=O)cc2)CC1 | inconclusive [inhibitor, partial curve] | –

Row | SMILES | Potency | activity change, negative = inhibition
49 | CCN1C(=O)[C@H]2[C@@H](c3ccc(SC4CCCCC4)cc3)N[C@@](CC(C)C)(C(=O)OC)[C@H]2C1=O | active: 11.7 µM | –
50 | Cn1c(=O)c2c(SCCN3CCOCC3)nc(C3CCCC3)nc2n(C)c1=O | inconclusive [inhibitor, partial curve, poor fit] | –
51 | Cc1ccsc1C(=O)N(C)C1CCS(=O)(=O)C1 (stereo not given) | inactive | –
52 | CC1(C)Cc2c(C#N)c(N3CCN(C(=O)c4ccccc4)CC3)nc(-c3ccco3)c2CS1 | inconclusive [inhibitor, partial curve, poor fit] | –
53 | COC(=O)c1cc(C(=O)OC)n(Cc2ccc(Br)cc2)n1 | inactive | –
54 | CC(OC(=O)CCN1C(=O)c2cccc([N+](=O)[O-])c2C1=O)C(=O)Nc1cc(Cl)cc(Cl)c1 (stereo not given) | inactive | –
55 | CCOC(=O)C1=C(C)NC(=S)NC1c1ccc(-c2cccc(Cl)c2C)o1 (stereo not given) | inconclusive [inhibitor, partial curve, poor fit] | –
56 | C=C(C)COc1ccc(-c2[nH]ncc2Oc2ccc(OC)cc2)c(O)c1 | inconclusive [inhibitor, partial curve] | –
57 | CS(=O)(=O)N1CCN(c2ccccc2NC(=O)Cc2ccccc2)CC1 | inactive | –
58 | C=CCN(CC=C)C(=O)c1ccc2nc(Cc3ccc(OC)c(OC)c3)oc2c1 | inconclusive [inhibitor, single point] | –
59 | Cc1ccccc1NC(=O)CCl | inconclusive [inhibitor, full curve] | –
60 | COc1ccc(/C=N/NC(=O)C(C)n2cnc3ccccc3c2=O)cc1OC (stereo not given) | inactive | –
61 | Cc1ccc(NC(=O)c2cc(S(=O)(=O)N3CCCC3)cn2C)cc1C | inconclusive [inhibitor, single point] | –
62 | Cc1ccc(NS(=O)(=O)c2ccc(Cl)c(NC(=S)NC(=O)C3CCCCC3)c2)cc1Cl | inconclusive [inhibitor, partial curve, poor fit] | –
63 | COc1ccc(OCCC(=O)NCC23CC4CC(CC(C4)C2)C3)cc1 | inconclusive [inhibitor, single point] | –
64 | COc1ccccc1-c1nnc(NC(=O)CCS(=O)(=O)c2ccccc2)o1 | inactive | –
65 | CCCN(Cc1nnc(-c2ccccc2Cl)o1)C(=O)COc1ccc(Cl)cc1 | inconclusive [inhibitor, single point] | –
66 | O=C(/C=C/c1ccccc1)N1CCN(S(=O)(=O)c2ccc(F)cc2)CC1 | inconclusive [inhibitor, full curve] | –
67 | COc1ccc(NC(=O)C(=O)NCCCO)cc1Cl | inactive | –
68 | O=C(Nc1cccnc1)c1ccc(Cl)c(S(=O)(=O)N2CCCC2)c1 | inconclusive [inhibitor, full curve] | –
69 | CC(C)Cn1c(SCC(=O)Nc2cccc(S(N)(=O)=O)c2)nc2ccccc2c1=O | inconclusive [inhibitor, single point] | –
70 | COc1ccc(CCNC(=O)c2cn(C)c3ccc(S(=O)(=O)N4CCOCC4)cc3c2=O)cc1OC | active: 13.1 µM | –
